Assay results from PMC4336329 (PLoS ONE, 2015).
Screen size: about 310,000 compounds; about 14,000 (4.5%) showed an effect of 50% or more. Effects have a minus sign here. Some of the results follow.

biological target: human ether-à-go-go-related gene (hERG) potassium channel (human, UniProt Q12809); experiment: primary screen, population patch clamp on CHO cells stably expressing hERG
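Note: peak tail current of the secondary pulse compared with the same well before compound.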

Chain of human ether-à-go-go-related gene (hERG) potassium channel (Q12809 whole entry, looked up): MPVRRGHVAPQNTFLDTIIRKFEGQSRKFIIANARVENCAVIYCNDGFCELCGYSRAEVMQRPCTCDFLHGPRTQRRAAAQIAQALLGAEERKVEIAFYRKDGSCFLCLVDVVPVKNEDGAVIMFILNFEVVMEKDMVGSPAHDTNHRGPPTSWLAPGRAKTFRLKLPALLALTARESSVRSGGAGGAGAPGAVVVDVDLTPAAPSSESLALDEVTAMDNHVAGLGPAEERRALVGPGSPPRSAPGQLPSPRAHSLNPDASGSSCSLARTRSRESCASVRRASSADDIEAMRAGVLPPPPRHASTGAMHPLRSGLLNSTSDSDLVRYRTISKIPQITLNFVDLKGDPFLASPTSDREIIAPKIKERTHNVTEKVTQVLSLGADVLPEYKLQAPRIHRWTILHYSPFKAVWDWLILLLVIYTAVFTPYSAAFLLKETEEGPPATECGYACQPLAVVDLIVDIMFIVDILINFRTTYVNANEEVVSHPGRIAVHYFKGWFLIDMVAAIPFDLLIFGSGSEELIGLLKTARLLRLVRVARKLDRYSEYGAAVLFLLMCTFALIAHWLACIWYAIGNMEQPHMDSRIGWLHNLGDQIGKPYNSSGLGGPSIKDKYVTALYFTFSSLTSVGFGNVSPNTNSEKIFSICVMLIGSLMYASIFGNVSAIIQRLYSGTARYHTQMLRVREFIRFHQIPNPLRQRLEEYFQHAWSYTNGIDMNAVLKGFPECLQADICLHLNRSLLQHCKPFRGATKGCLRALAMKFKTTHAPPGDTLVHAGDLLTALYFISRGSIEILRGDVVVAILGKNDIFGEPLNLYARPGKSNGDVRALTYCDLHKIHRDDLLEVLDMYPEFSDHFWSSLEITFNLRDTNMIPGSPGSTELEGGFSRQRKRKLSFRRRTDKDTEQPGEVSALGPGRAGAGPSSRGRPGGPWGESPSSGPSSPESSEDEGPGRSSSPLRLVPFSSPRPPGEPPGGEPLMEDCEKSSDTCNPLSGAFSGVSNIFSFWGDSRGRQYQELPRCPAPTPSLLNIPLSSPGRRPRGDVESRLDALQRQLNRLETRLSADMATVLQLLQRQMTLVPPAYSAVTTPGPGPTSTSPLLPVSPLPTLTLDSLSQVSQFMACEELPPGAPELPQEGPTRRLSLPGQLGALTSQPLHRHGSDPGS

In order of rising “hERG current change (%, negative = inhibition) at 10uM” value:
1. O=C(c1ccccc1)N1CCN(c2ccc([N+](=O)[O-])c(NCC3CCCO3)c2)CC1 (centres unmarked)  -76.9%
2. CCN(CC)CCCNC(=O)c1cn(-c2cccc(OC)c2)c(=O)c2ccccc12  -68.5%
3. CCOC(=O)c1cc2c(=O)n3ccccc3nc2n(C(C)C)c1=NC(=O)c1ccncc1  -67.5%
4. COc1ccc(CC(=O)N(Cc2ccccc2)c2ccc(C)cc2)cc1OC  -43.8%
5. O=C(c1ccco1)N1CCN(c2nc(C3CC3)nc3sc4c(c23)CCCC4)CC1  -29.7%
6. O=C(/C=C/c1ccco1)Nc1cccc(S(=O)(=O)N2CCOCC2)c1  -28.8%
7. Cc1ccc(C)c2c1cc(C)c1nnc(SCC(=O)NCc3ccc4c(c3)OCO4)n12  -23.6%
8. CC(=O)Nc1sc(N/N=C\c2ccccc2F)nc1-c1cccs1  -22.5%
9. N#Cc1ccc(CN2CCN(C(=O)CNS(=O)(=O)c3ccc4c(c3)OCCCO4)CC2)cc1  -20.8%
10. O=C(CSc1nnc(Cc2cccs2)n1Cc1ccco1)Nc1ccc(Br)cc1  -14.2%
11. O=S(=O)(c1cccc(-c2nnc(-c3ccc(Br)cc3)o2)c1)N1CCCCCC1  -12%
12. CCCCN(C(=O)CCCc1nc2ccccc2s1)c1c(N)n(CC(C)C)c(=O)[nH]c1=O  -8.98%
13. Cc1cc2nnc(SCC(=O)NCC(c3ccccc3)N(C)C)n2c2ccccc12 (centres unmarked)  -8.13%
14. N#Cc1ccc(-c2ccc(OCC(=O)NCC(=O)Nc3ccc(F)c(F)c3F)cc2)cc1  -7.98%
15. O=c1c2sccc2n(Cc2cccc(F)c2)c(=O)n1-c1ccc(F)cc1  -7.59%
16. CC1CCN(c2ccc(NC(=O)c3ccc([N+](=O)[O-])o3)cc2)CC1.Cl  -4.42%
17. COC(=O)Cn1cc(C(=O)c2ccco2)c2ccccc21  -4.24%
18. O=c1cc(CSc2nnc(COc3ccccc3)o2)c2ccccc2[nH]1  -2.29%
19. Cc1cccn2c(N)c(-c3ccccc3)nc12  -1.88%
20. Cc1[nH]c2ccc(C(=O)OC(C)C(=O)N(C)c3ccccc3)cc2c1C (centres unmarked)  1.13%
21. CC(C)(CN1CCN(C(c2ccccc2)c2ccccc2)CC1)NS(=O)(=O)c1ccccc1  1.4%
22. COc1ccc(NC(=O)c2cccc(S(=O)(=O)N3CCCCCC3)c2)cc1  1.51%
23. CCOC(=O)c1cnc(SCC(=O)Nc2ccc(NC(C)=O)c(OC)c2)nc1N  2.44%
24. Cc1ccc(NC(=O)c2nnn(-c3cc(C)cc(C)c3)c2N)cc1  3.11%
25. Cc1c(O)ccc2c(CN3CCN(CCO)CC3)cc(=O)oc12  3.5%
26. Nc1ccc2nn(-c3cccc4ccccc34)nc2c1  4.08%
27. Cc1ccc(O)c(C(=O)c2cnc3onc(-c4ccc(F)cc4)c3c2)c1  4.58%
28. Cc1ccc(S(=O)(=O)NC(CC(=O)O)c2ccccc2)c(C)c1 (centres unmarked)  5.52%
29. CCC(=O)N(Cc1cc2ccccc2[nH]c1=O)c1ccccc1OC  5.71%
30. N/C(=N\OC(=O)/C=C/c1ccccc1Cl)c1ccccn1  5.88%
31. COc1cccc(CNC(=O)c2ccc(CS(=O)Cc3ccc(C)cc3)o2)c1 (centres unmarked)  5.9%
32. COc1cc(OC)c(C#N)c(S(=O)Cc2ccccc2)c1 (centres unmarked)  6.12%
33. O=C(NC(=S)Nc1ccc(N2CCOCC2)c(Cl)c1)c1cncc(Br)c1  8.44%
34. CC(=O)Nc1nnc(CCS(=O)(=O)c2ccc(C)c(C)c2)s1  8.73%
35. COc1ccc(-c2cc(C(=O)N/N=C(\C)c3cccnc3)c3ccccc3n2)cc1  8.87%
36. C=CCN(CC=C)C(=O)Nc1ccc2nc(C)sc2c1  9.53%
37. CC1CCCN(C2(O)C(=O)Nc3c(C(F)(F)F)cccc32)C1 (centres unmarked)  9.9%
38. O=C(O)c1cc(NC(=O)c2ccc([N+](=O)[O-])cc2)cc(NC(=O)c2ccc([N+](=O)[O-])cc2)c1  10.5%
39. O=C(Cn1nnc(-c2ccccc2)n1)N/N=C/c1cc([N+](=O)[O-])c(Cl)cc1Cl  10.9%
40. CC(CNC(=O)COC(=O)c1cccs1)c1ccccc1 (centres unmarked)  11.7%
41. Brc1ccc(CSc2nnc(-c3cccnc3)o2)cc1  11.8%
42. CCCN(CC1CCCO1)C(=O)CCc1nnc(CCc2ccc(OC)cc2)o1 (centres unmarked)  12.7%
43. COC(=O)CN(C)C(=O)c1ccc(OC)c(OC2CCN(C(C)C)CC2)c1  13.1%
44. c1cc2c(cn1)cnc1cscc12  15.3%
45. CCCCn1cnc2c([nH]c3ccccc32)c1=O  15.7%
46. O=C(N/N=C/c1cccs1)c1ccc2ncccc2c1  16.7%
47. O=C(Nc1ccccc1)c1c(O)[nH]c(=S)[nH]c1=O  16.9%
48. Cc1ccc(S(=O)(=O)Nc2cccc(-c3ccc(N4CCCCCC4)nn3)c2)cc1  17.1%
49. CC(C)(C)c1nc2sc3c(c2c(=O)o1)CCCC3  17.6%
50. COc1ccc(NC(=O)CN(C)CC(=O)Nc2cccc(C(C)=O)c2)cc1  18.5%
51. CC(=O)O.NCc1ccc(S(N)(=O)=O)cc1  18.5%
52. Cc1ccc(/C=C/C(=O)O)cc1S(=O)(=O)NC1CCS(=O)(=O)C1 (centres unmarked)  19.6%
53. Fc1c(F)c(F)c(NC2=NCCCCC2)c(F)c1F  20%
54. CC(=O)c1cccc(N2C(=O)C3C4CCC(C4=C(C)C)C3C2=O)c1 (centres unmarked)  21.1%
55. CCn1c(SCC(=O)N2CC(=O)Nc3ccccc32)nnc1-c1ccoc1C  27.2%
56. CCC1(c2ccccc2)NC(=S)N(c2ccc(C)c(C)c2)N1 (centres unmarked)  27.8%
